About 14,000 (4.5%) of roughly 310,000 compounds showed an effect of 50% or more. The effect is printed as a negative number. The list shows a part of the results.
Target: human ether-à-go-go-related gene (hERG) potassium channel (human, UniProt Q12809)
Experiment: primary screen, population patch clamp on CHO cells stably expressing hERG
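Further: peak tail current of the secondary pulse compared with the same well before compound.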

Chain of human ether-à-go-go-related gene (hERG) potassium channel (Q12809 whole entry, looked up): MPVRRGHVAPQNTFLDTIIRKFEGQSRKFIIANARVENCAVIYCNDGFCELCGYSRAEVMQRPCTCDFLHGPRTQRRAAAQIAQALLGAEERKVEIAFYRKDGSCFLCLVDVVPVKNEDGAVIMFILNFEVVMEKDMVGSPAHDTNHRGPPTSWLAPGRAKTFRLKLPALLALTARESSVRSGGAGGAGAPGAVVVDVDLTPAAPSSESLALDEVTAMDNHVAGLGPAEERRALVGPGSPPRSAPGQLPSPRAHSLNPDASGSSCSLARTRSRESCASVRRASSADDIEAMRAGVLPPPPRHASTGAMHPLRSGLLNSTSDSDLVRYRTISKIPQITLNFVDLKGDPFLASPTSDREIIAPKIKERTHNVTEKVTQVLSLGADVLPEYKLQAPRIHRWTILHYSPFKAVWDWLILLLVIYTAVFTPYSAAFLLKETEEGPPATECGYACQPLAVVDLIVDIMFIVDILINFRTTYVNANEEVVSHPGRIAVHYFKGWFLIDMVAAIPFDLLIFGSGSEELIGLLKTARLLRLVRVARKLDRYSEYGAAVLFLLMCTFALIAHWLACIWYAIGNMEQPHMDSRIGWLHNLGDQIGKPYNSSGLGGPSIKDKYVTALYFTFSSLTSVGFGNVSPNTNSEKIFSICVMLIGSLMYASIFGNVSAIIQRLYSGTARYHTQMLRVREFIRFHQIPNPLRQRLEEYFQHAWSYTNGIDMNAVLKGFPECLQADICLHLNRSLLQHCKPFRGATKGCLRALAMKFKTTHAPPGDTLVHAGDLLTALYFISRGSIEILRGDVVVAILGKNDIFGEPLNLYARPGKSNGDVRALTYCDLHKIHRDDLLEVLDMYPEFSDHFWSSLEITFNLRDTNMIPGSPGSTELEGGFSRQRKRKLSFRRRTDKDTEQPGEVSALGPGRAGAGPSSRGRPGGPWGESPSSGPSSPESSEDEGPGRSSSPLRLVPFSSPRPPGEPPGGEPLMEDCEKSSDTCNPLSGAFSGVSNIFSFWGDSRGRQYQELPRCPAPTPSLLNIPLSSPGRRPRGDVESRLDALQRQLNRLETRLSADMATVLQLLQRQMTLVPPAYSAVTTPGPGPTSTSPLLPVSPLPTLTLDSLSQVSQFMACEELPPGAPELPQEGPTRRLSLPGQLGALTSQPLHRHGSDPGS

First: CCN(CC)CC(=O)NN(Cc1ccccc1)c1ccccc1.O=C(O)C(=O)O
Second: O=C(O)C(=O)O.O=C(c1ccccc1)c1ccc(OCC(O)CNCc2ccc(F)cc2)cc1 (centres unmarked)
The “hERG current change (%, negative = inhibition) at 10uM” value of the first is lower: -73.6% for the first, -68.2% for the second.

Going from `COc1ccc(N2CC(C(=O)OCC(=O)c3ccccc3)CC2=O)cc1` (centres unmarked) to `O=C(COC(=O)C1CC(=O)N(c2ccc3c(c2)OCCO3)C1)NC1CCCc2ccccc21` (centres unmarked), the “hERG current change (%, negative = inhibition) at 10uM” value falls from -9.34% to -9.6%.

First: COc1ccccc1N1CCN(C2CCCN(C(=O)c3cc(C)oc3C)C2)CC1 (centres unmarked)
Second: O=C(c1ccccc1F)N1CCCC(C(=O)N2CCN(c3ccccc3)CC2)C1 (centres unmarked)
The “hERG current change (%, negative = inhibition) at 10uM” value of the first is lower: -3.28% for the first, -2.72% for the second.

First: COc1cc2c(cc1OC)-c1nnc(-c3ccco3)n1C1(CCCC1)C2
Second: COc1ccc(C(=O)Nc2ccc3c(c2)C(=O)N(C)C3=O)cc1OC
The “hERG current change (%, negative = inhibition) at 10uM” value of the first is lower: -8.01% for the first, 12.7% for the second.

Going from `O=c1[nH]c2c(=O)[nH]cnc2nc1-c1ccccc1` to `CC(=O)Cn1cnc2sc(-c3ccccc3)cc2c1=O`, the “hERG current change (%, negative = inhibition) at 10uM” value falls from 8.55% to -13.2%.

Compared with `COCCNC(=O)CSc1n[nH]c(=O)n1CCc1ccccc1`, `O=C(CSc1nc2c(sc3ccccc32)c(=O)n1CCO)NCc1ccco1` is lower in “hERG current change (%, negative = inhibition) at 10uM” value: 19% for the first, -18.2% for the second.

First: CC(C(=O)Nc1cccc(C#N)c1)N(C)CCOc1ccccc1 (centres unmarked)
Second: N/C(COc1cccc(Cl)c1)=N\NS(=O)(=O)c1ccccc1
The “hERG current change (%, negative = inhibition) at 10uM” value of the first is lower: -14.9% for the first, 8.21% for the second.

First: Cc1ccc(C)c(NC(=O)CN2C(=O)CNC2=O)c1
Second: CCN(CC(=O)NC1CCS(=O)(=O)C1)S(=O)(=O)c1ccc(C)cc1C (centres unmarked)
The “hERG current change (%, negative = inhibition) at 10uM” value of the first is lower: 0.955% for the first, 12.5% for the second.

First: O=C(CN(CC1CCCO1)C(=O)CNS(=O)(=O)c1ccc(F)cc1)NCc1ccc(F)cc1 (centres unmarked)
Second: CCN(CC(=O)NCc1ccc(Cl)cc1)S(=O)(=O)c1ccc(F)cc1
The “hERG current change (%, negative = inhibition) at 10uM” value of the first is higher: -2.38% for the first, -19.1% for the second.

Going from `CCCCCCCC(=O)NNC(=O)CC(=O)Nc1ccccc1C(=O)O` to `CCC(C)C(=O)Nc1cc(C(=O)OC)ccc1C(=O)OC` (centres unmarked), the “hERG current change (%, negative = inhibition) at 10uM” value falls from -4.89% to -25.5%.

Going from `O=[N+]([O-])c1ccc(NCc2ccc(Cl)cc2)c2ccncc12` to `CC(=O)c1ccc([N+](=O)[O-])c(CS(=O)(=O)c2ccc(Cl)cc2)c1`, the “hERG current change (%, negative = inhibition) at 10uM” value falls from 18.5% to 9.38%.

First: CC1=C(C(=O)Nc2ccccc2)C2(CCCCC2)C(C(N)=O)C(=S)N1 (centres unmarked)
Second: O=C(Nc1ccc(C(=O)N2CCCCC2)cc1)c1cccc([N+](=O)[O-])c1
The “hERG current change (%, negative = inhibition) at 10uM” value of the first is higher: -6.36% for the first, -16.4% for the second.

Going from `COc1ccc(OC)c(/C=N/NC(=O)CCc2n[nH]c(=O)[nH]c2=O)c1` to `COc1ccc(OC)c(/C=C/C(=O)N2CCN(S(=O)(=O)c3cc(C)ccc3C)CC2)c1`, the “hERG current change (%, negative = inhibition) at 10uM” value falls from 4.8% to -14.1%.

Going from `CSc1ccc(S(=O)(=O)N2CCC(C(=O)NCc3cccnc3)CC2)cc1` to `CCOc1ccccc1/C=C/c1onc(C)c1S(=O)(=O)N1CCC(C(=O)N(CC)CC)CC1`, the “hERG current change (%, negative = inhibition) at 10uM” value rises from -28.4% to -3.33%.

Compared with `Cc1cc(-c2ccccc2)n2nc(C)c(-c3ccccc3)c2n1`, `O=c1cc(-c2ccccc2)cc(-c2ccccc2)n1CCCO` is lower in “hERG current change (%, negative = inhibition) at 10uM” value: 8.7% for the first, -31.9% for the second.

Going from `COC(CNC(=O)c1ccc(-n2c(=S)[nH]c3ccccc3c2=O)cc1)OC` to `COc1ccccc1CNC(=O)c1ccccc1OC`, the “hERG current change (%, negative = inhibition) at 10uM” value falls from -1.61% to -5.88%.

First: COc1ccc(C2=NS(=O)(=O)N(C)C(C(=O)N(C)Cc3ccccc3)=C2)cc1
Second: COc1ccc(CN(C)S(=O)(=O)c2nnc(NC(=O)c3cccc(F)c3)s2)cc1
The “hERG current change (%, negative = inhibition) at 10uM” value of the first is lower: -69.9% for the first, 13.5% for the second.

Compared with `COc1ccc(S(=O)(=O)NCCSCc2ccccc2C)cc1Br`, `COc1ccc(C(=O)/C=C/c2ccc(OCc3ccccc3)cc2)cc1CSCC(=O)O` is higher in “hERG current change (%, negative = inhibition) at 10uM” value: -1.29% for the first, 0.138% for the second.

Compared with `CCOC(=O)c1cccc(NC(=O)/C(=C\c2ccccc2)NC(=O)c2ccccc2Cl)c1`, `CCn1cc(/C=C(\NC(=O)c2ccc(OC)c(OC)c2)C(=O)NCCCO)c2ccccc21` is higher in “hERG current change (%, negative = inhibition) at 10uM” value: 3.62% for the first, 18.2% for the second.

Going from `O=C(c1ccc(F)cc1)c1cc2ccc(O)cc2oc1=O` to `CCc1ccc(NC(=O)c2cc(-c3ccc(F)cc3)on2)cc1`, the “hERG current change (%, negative = inhibition) at 10uM” value rises from 3.93% to 19.1%.

First: CCN1C(=O)[C@@H]2C(C(=O)c3cnccn3)=NN[C@@H]2C1=O
Second: CSc1ncc(Cl)c(C(=O)Nc2cccnc2)n1
The “hERG current change (%, negative = inhibition) at 10uM” value of the first is lower: 16.5% for the first, 18.3% for the second.

Going from `CCOC(=O)NC(=S)Nc1ccc(OC)cc1` to `COc1ccc(OCC(=O)Nc2c3c(nn2C(C)(C)C)CSC3)cc1`, the “hERG current change (%, negative = inhibition) at 10uM” value falls from 11.3% to -2.15%.

Going from `CC(C)c1ccc(OCc2nnc(SCC(=O)N3CCCCC3)o2)cc1` to `CCCOc1ccc(/C=C/C(=O)N2CCOCC2)cc1`, the “hERG current change (%, negative = inhibition) at 10uM” value rises from -15.3% to -1.67%.

Compared with `COCC(C)n1c(SCC(=O)Nc2oc(C)c3c(C)n[nH]c(=O)c23)nc2ccccc2c1=O` (centres unmarked), `Cc1c(CC(=O)N[C@@H](C)C(=O)O)c(=O)oc2c(C)c3occ(-c4ccccc4)c3cc12` is higher in “hERG current change (%, negative = inhibition) at 10uM” value: 6.9% for the first, 11.8% for the second.

Compared with `Cc1cc(C)cc(NC(=O)C(Sc2nnc(C)c(=O)[nH]2)c2ccccc2)c1` (centres unmarked), `CCOC(=O)C(CC)Sc1nnc2cc(C)c3ccccc3n12` (centres unmarked) is lower in “hERG current change (%, negative = inhibition) at 10uM” value: 12% for the first, -38% for the second.

Going from `Cc1onc(-c2c(F)cccc2Cl)c1C(=O)NCc1ccccn1` to `CCOc1ccc(NC(=O)CN(C)C(=O)c2c(-c3c(F)cccc3Cl)noc2C)cc1OCC`, the “hERG current change (%, negative = inhibition) at 10uM” value falls from 1.98% to -3.83%.

Compared with `CCOC(=O)C1=C(CSc2nc3c(cc2C#N)CN(C)CC3)OC(N)=C(C#N)C1c1ccncc1` (centres unmarked), `Cc1cc(C)c2nc(SCC(=O)Nc3cc(C)on3)c(C#N)cc2c1` is higher in “hERG current change (%, negative = inhibition) at 10uM” value: 3.37% for the first, 6.66% for the second.

Compared with `CCN(c1ccccc1)S(=O)(=O)c1ccc2[nH]cc(C(=O)N3CCOCC3)c(=O)c2c1`, `O=C(O)Cn1cc(/C=c2/sc3nc4ccccc4n3c2=O)c2ccccc21` is higher in “hERG current change (%, negative = inhibition) at 10uM” value: 13.5% for the first, 18.1% for the second.

First: O=C(CS(=O)CC(=O)N(CC(=O)NC1CCCC1)C1CCCCC1)Nc1ccc(F)cc1 (centres unmarked)
Second: CC1CCN(C(=O)CSc2nnc(CNc3ccc(F)cc3)n2Cc2ccco2)CC1
The “hERG current change (%, negative = inhibition) at 10uM” value of the first is higher: -26.8% for the first, -40.6% for the second.

First: O=C(Nc1cccc(NC(=O)c2cccs2)c1)c1ccc2c(c1)OCCO2
Second: CC(=O)NC12CC3CC(C1)CC(C(=O)OCC(=O)c1ccc4c(c1)OCCO4)(C3)C2
The “hERG current change (%, negative = inhibition) at 10uM” value of the first is higher: 4.94% for the first, -0.5% for the second.

Compared with `COc1ccc(/C=C/C(=O)NCCN2CCOCC2)cc1OC`, `CC(=O)N1CCN(Cc2nc(-c3cccc(Cl)c3)no2)CC1` is higher in “hERG current change (%, negative = inhibition) at 10uM” value: 26.6% for the first, 41.9% for the second.

Compared with `O=S(=O)(c1ccc(F)c(F)c1F)N1CCN(C(=S)NC2CC3CCC2C3)CC1` (centres unmarked), `CN1CCN(c2cc(=O)n(C3CCCCC3)c(=O)[nH]2)CC1` is lower in “hERG current change (%, negative = inhibition) at 10uM” value: 19.6% for the first, -3.72% for the second.

Going from `Cc1ccccc1OCC(=O)Nc1ccc(N2CCN(C)CC2)c(Cl)c1` to `CCOC(=O)c1cnc2c(ccc3ccccc32)c1N`, the “hERG current change (%, negative = inhibition) at 10uM” value rises from -68.8% to 18.8%.

First: CCOC(=O)CSc1nc(C)c(C(=O)OCC)s1
Second: CSc1ncccc1C(=O)OCC(=O)NCc1ccccc1
The “hERG current change (%, negative = inhibition) at 10uM” value of the first is higher: 4.86% for the first, -19.6% for the second.

Going from `CCCC(=O)NC(Nc1cccc(C(F)(F)F)c1)C(Cl)(Cl)Cl` (centres unmarked) to `CC(C)OC(=O)c1nn2c(C(F)(F)F)cc(-c3ccco3)nc2c1Cl`, the “hERG current change (%, negative = inhibition) at 10uM” value rises from -12.8% to 17.6%.

First: Cc1cc(=O)cc(C)n1-c1ccccc1N
Second: Cn1c(NNC(=O)C(c2ccccc2)c2ccccc2)cc(=O)n(C)c1=O
The “hERG current change (%, negative = inhibition) at 10uM” value of the first is lower: 18.5% for the first, 26.9% for the second.

Compared with `O=c1cc(O)c2sc3nc(C(F)(F)F)c4c(c3c2[nH]1)CCCCC4`, `COC(=O)C1=C(c2c(C)noc2C)C[C@@H]2CC[C@H]1N2C(=O)NCc1ccc(C(F)(F)F)cc1` is lower in “hERG current change (%, negative = inhibition) at 10uM” value: 1.82% for the first, -26.5% for the second.

First: Br.O=C(Cn1c(NCCCO)nc2ccccc21)c1ccc(Cl)cc1
Second: CC(Oc1ccc(-c2ccccc2)c(F)c1)c1ccn(S(=O)(=O)c2ccc(Cl)cc2)n1 (centres unmarked)
The “hERG current change (%, negative = inhibition) at 10uM” value of the first is lower: -21% for the first, 2.34% for the second.

First: C=CCNC(=O)CN(c1ccc(F)c(Cl)c1)S(C)(=O)=O
Second: CC(=O)Nc1ccc(S(=O)(=O)c2ccc(N)cc2)cc1
The “hERG current change (%, negative = inhibition) at 10uM” value of the first is higher: 12.5% for the first, -4% for the second.

Compared with `COc1ccc(CNC(=O)c2ccc(CS(=O)Cc3cccc(Cl)c3)o2)cc1` (centres unmarked), `Cc1ccc(CS(=O)(=O)Cc2ccc(C(=O)NCCCN3CC(C)CC(C)C3)o2)cc1` (centres unmarked) is lower in “hERG current change (%, negative = inhibition) at 10uM” value: -37.5% for the first, -60.2% for the second.

Compared with `CCOc1ccc(-n2c(=O)c3c(C)c(C(=O)N(C)C)sc3n(CC(=O)Nc3ccccc3F)c2=O)cc1`, `O=C1CSC(c2cccc(F)c2)N1c1c(F)cccc1F` (centres unmarked) is lower in “hERG current change (%, negative = inhibition) at 10uM” value: 9.73% for the first, -3.43% for the second.

First: Cc1ccc(CN2CCN(Cc3cccn3-c3ccccn3)CC2CCO)o1 (centres unmarked)
Second: O=C(CCCC(=O)N/N=C\c1ccccn1)N/N=C\c1ccccn1
The “hERG current change (%, negative = inhibition) at 10uM” value of the first is lower: -66.1% for the first, 2.44% for the second.

First: CCOc1ccc(N=C(NC#N)SCC)cc1
Second: COc1cc(C2NC(=O)CCC2[N+](=O)[O-])c(OC)cc1Br (centres unmarked)
The “hERG current change (%, negative = inhibition) at 10uM” value of the first is lower: -7.27% for the first, 31.7% for the second.

From publication PMC4336329 (PLoS ONE, 2015)
